From PMC12136788
The other results are listed elsewhere or left out.

T1: UNK ZnF1-3 (human, UniProt Q9C0B0 31-174)
T1 sequence: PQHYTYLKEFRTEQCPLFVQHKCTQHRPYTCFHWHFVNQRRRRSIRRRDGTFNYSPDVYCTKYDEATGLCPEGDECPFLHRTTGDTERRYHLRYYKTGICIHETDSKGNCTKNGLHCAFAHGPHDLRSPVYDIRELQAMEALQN

B1: chr7:135612270:135612271:-_ENSG00000105887_ENST00000393085|hu_mus|hu_hu_hu_mus_False|18_58 (ssRNA)
RNA: GGGAGUUCUACAGUCCGACGAUCGUUUUUUUCUGAGAUGUUAAAUAGUACUUCAGUGGAAAACAAAACUUAACCUUUCGCUAAUGCGUGUUGUACCAAAAGCAGACAUUUUAGCUUGCUUCCUUUAAAAAUAUUAACAUUAAGCAACAGAGGAUUGAGCAUCA
B2: chr16:75203323:75203324:+_ENSG00000184517_ENST00000393430|hu_mus|motif|central (ssRNA)
RNA: GGGAGUUCUACAGUCCGACGAUCAAGUGGUUCCCCAAAUCCACCACACCCGUCUCCUUUCUUUCUUACACAGUUUCGGCUGCGGAGUAAGUCUGAAUUGUACUUCAAAGUUUUUUCAUAUAAAUCAUAUUUAUAGGGAACUUGCAACAGAGGAUUGAGCAUCA
B3: chr2:52995849:52995850:-_ENSMUSG00000061136_ENSMUST00000076313|mus_hu|FALSE|FALSE (ssRNA)
RNA: GGGAGUUCUACAGUCCGACGAUCACAGAGAACAAAAUCUUAUCACCUGUGCCUUCAGACUGUCAAGUAUCUUUCUAGCAACUAAAUCCCAUUUGAUGGGAUCCUGAAAGGUAGACAAAGGAUCACAGUCACUUAAGUUACAUCCAACAGAGGAUUGAGCAUCA
B4: chr5:128440902:128440903:+_ENSG00000066583_ENST00000173527|hu_mus|FALSE|FALSE (ssRNA)
RNA: GGGAGUUCUACAGUCCGACGAUCUUGAACGGUGCUGCCAAGUCCUUUGGGGUAUUGUUCCGUUAUGAUAACUGGAAUCCCUAAGAUCCGAGCUCCUUGCAACAGUCUCUGUCCCACACUAAUGAUGUCCCCAAAGUAUUUGAUCAACAGAGGAUUGAGCAUCA
B5: 59919957_59925198_2102_CDS_ENSG00000134444_ENST00000256858|human|control|control (ssRNA)
RNA: GGGAGUUCUACAGUCCGACGAUCGGAGCUACGGAUUUCUUUAGGAAGGUAAGGUGCCAGUGCUCCACAGGAUUCUGCCACAAGCAGUCGUCUUUCUGGGUAUUUGUGAUUAAUCUGUUCCCAACACUGUGGUAAAAGUUCAGCCAACAGAGGAUUGAGCAUCA
B6: chr16:45382771:45382772:-_ENSMUSG00000022661_ENSMUST00000163230|mus_mus|mus_mus_mus_hu_True|48_108 (ssRNA)
RNA: GGGAGUUCUACAGUCCGACGAUCCUGAGUGUUAUUGUAAGACAAAUGGACAGGGAGGGCAUGCUUCUCAAAAAAUGUGAGCUAUUGACUAAGACUAACAAUAUUUAUCUAGCUAUAAAAAUAAGUUAAAUGAAUAAGUUAAGACAACAGAGGAUUGAGCAUCA
B7: chr5:132424181:132424182:+_ENSG00000170606_ENST00000304858|hu_hu|motif|central (ssRNA)
RNA: GGGAGUUCUACAGUCCGACGAUCGGCACACUGCAAUGCACAGCCUCGAGUGACAGCUUCAUCAGCAUUUAAUGUUGUACGGAGUUCUUUACCGAAAAAUUUGCUGAUCUUCUCUUUUACCGCAGGGAUUCGUGUAGCACCACCCAACAGAGGAUUGAGCAUCA
B8: chr2:207631934:207631935:+_ENSG00000118246_ENST00000403094|hu_mus|motif|central (ssRNA)
RNA: GGGAGUUCUACAGUCCGACGAUCCUCUUGUCUUCAGAUAUCCUUUUGGCAAUUAUCCACAUUGCUAAGAAAUAGUUACGGCCAGGAAAUGUAGGUGCUUUUGAAAAUGUGUCCAGCACAUCACUCAGAGAGUUACACUCCUGGCAACAGAGGAUUGAGCAUCA
B9: chr4:110743517:110743518:+_ENSG00000109534_ENST00000226796|hu_hu|FALSE|FALSE (ssRNA)
RNA: GGGAGUUCUACAGUCCGACGAUCUUUCUCACCUGGAGGUCGAGGUAAAAACCUCUGCAGUGGCAGCAGCUUAUAUGGGUCUAUAUAAAACUUCUGUAGUUUUUUAAAGGAUGAAGCCUUCAUGUUUUCUGACAACUUAACUGACAACAGAGGAUUGAGCAUCA
B10: chr5:86670034:86670035:+_ENSG00000145715_ENST00000456692|hu_hu|motif|central (ssRNA)
RNA: GGGAGUUCUACAGUCCGACGAUCUUCUGACCAUACUGGGUUUUGCCCUUCCCUUGCAUGAGUUUUUGCUACUUGGACACGGUUCAGGUAGAUGUUACAAUAUGGAUUAGUAAAAUGUUUUACUGGGAGUUUAUGGGCUUCUUCCAACAGAGGAUUGAGCAUCA
B11: chr14:78183846:78183847:+_ENSG00000119705_ENST00000557342|hu_hu|hu_hu_hu_mus_False|18_58 (ssRNA)
RNA: GGGAGUUCUACAGUCCGACGAUCUCUCAGAAAUCUUUCUUCAUCAGAUGUUUGAGCUCCGUGCAAAGCCUUUGCUCUUCUAGUGUGAACGUGGAUCUAUGGGAGGGAAAGCACUGUAUUUUCCUGUAAUUUUUUUUUUAAAGACAACAGAGGAUUGAGCAUCA
B12: chr2:64119684:64119685:-_ENSG00000143952_ENST00000409558|hu_hu|motif|central (ssRNA)
RNA: GGGAGUUCUACAGUCCGACGAUCACAUCGAAAGUAACUUAAAAACAAGGAUCCAAGGGGGCCAUACUUCAUAUGUUAUCGGAAUGUUAAUAUGAGAACUCAAAAGUAGGCAGAUUAUAUGAAUACAUAUUCUUACCUCUGCUACAACAGAGGAUUGAGCAUCA
B13: chr6:41067180:41067181:+_ENSG00000001167_ENST00000341376|hu_hu|motif|central (ssRNA)
RNA: GGGAGUUCUACAGUCCGACGAUCACAAAAUUCAAAGUCAUCUCCCCCCAAAUAAAAAAUUCAGCAACAAGGCUGGCAUUACGGUGUACAAACUUACAGACACAAAUAAAUAGCAUCUUCUAACUGUUGGCAGCUUAAGCACUCCAACAGAGGAUUGAGCAUCA
B14: chr13:85359083:85359084:-_ENSMUSG00000021549_ENSMUST00000109552|mus_hu|FALSE|FALSE (ssRNA)
RNA: GGGAGUUCUACAGUCCGACGAUCGGGCUCCUUAGCUCCAAAUUCCACAAGAUUUGCUAAGUUCUGCACAGAUUUAGCCACUAAUAUCAGUGUUCUUGCAGCAAUAGGAGAUGGAGAAUCUGAGAUGAUAUUGAACAUCCGUGGCAACAGAGGAUUGAGCAUCA

What follows are binders tested against T1, UNK ZnF1-3 (assay: nsRBNS (natural sequence RNA bind-n-seq); RBNS binding buffer (assumed for nsRBNS): 25 mM Tris pH 7.5, 150 mM KCl, 3 mM MgCl2, 0.01% Triton X-100, 500 ug/ml BSA, 20 U/ml SUPERase-In, 4 C; UNK is unkempt and MSI1 is Musashi-1; names of the RNAs are library labels; protein concentration not given here; high values mean tight binding).

Binder | binding signal
B1 | 0.613 enrichment R
B2 | 0.958 enrichment R
B3 | 1.24 enrichment R
B4 | 0.721 enrichment R
B5 | 1.58 enrichment R
B6 | 1 enrichment R
B7 | 1.44 enrichment R
B8 | 1.02 enrichment R
B9 | 0.858 enrichment R
B10 | 0.485 enrichment R
B11 | 0.867 enrichment R
B12 | 1.25 enrichment R
B13 | 2.3 enrichment R
B14 | 1.63 enrichment R
